# Results reported in publication PMC4336329 (PLoS ONE, 2015).
# Screen size: about 310,000 compounds; about 2,200 (0.71%) showed an effect of 50% or more. Effects have a minus sign here. The list shows a part of the results.
# Molecular target: human ether-à-go-go-related gene (hERG) potassium channel (human, UniProt Q12809)
# Experiment: primary screen, population patch clamp on CHO cells stably expressing hERG
# Chain of human ether-à-go-go-related gene (hERG) potassium channel (Q12809 whole entry, looked up): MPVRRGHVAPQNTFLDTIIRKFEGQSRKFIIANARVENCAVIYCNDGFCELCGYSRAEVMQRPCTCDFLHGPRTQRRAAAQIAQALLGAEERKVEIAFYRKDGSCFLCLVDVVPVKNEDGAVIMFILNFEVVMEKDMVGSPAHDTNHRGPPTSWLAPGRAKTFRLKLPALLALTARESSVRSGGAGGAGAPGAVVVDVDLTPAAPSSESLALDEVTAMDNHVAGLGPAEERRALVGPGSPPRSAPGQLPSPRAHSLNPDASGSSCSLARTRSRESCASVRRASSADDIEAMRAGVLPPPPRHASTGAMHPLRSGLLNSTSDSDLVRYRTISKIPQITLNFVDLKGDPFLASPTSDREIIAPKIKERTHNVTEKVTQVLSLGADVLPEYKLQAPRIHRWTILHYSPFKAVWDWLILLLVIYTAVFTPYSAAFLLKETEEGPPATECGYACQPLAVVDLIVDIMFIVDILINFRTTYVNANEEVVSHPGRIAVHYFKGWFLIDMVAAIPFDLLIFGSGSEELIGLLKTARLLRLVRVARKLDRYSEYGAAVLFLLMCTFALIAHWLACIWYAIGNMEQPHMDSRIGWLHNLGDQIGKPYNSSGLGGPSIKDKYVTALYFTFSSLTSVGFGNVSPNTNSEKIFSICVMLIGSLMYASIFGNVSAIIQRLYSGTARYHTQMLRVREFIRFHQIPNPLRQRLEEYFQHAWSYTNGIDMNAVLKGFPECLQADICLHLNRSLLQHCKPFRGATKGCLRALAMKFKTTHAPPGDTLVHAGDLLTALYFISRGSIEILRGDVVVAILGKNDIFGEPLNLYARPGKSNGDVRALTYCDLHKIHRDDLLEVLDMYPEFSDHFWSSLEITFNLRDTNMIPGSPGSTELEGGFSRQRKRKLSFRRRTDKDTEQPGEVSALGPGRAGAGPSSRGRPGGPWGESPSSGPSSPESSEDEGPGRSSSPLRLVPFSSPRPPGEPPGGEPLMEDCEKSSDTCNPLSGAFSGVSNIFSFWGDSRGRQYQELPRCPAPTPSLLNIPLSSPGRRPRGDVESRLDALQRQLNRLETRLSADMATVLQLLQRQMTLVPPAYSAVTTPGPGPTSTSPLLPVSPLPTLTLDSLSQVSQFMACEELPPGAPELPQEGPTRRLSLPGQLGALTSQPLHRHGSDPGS
row,Compound,"hERG current change (%, negative = inhibition) at 1uM"
1,COc1ccccc1NC(=O)COc1ccc(Br)cc1CNCCCN1CCOCC1.Cl,-3.06%
2,Cc1cccc2cc(C#N)c(NCCNC(=O)COc3ccccc3)nc12,26.4%
3,C=CCOC(=O)Nc1snnc1C,1.92%
4,Nc1c(-c2ccccc2)c(CN2CCOCC2)nn1-c1ccc(F)cc1,3.39%
5,O=C(NC(=S)Nc1ccccc1N1CCCCC1)c1cccs1,16.2%
6,O=C(CSCc1ccccc1Cl)NNC(=O)c1ccccc1,11.2%
7,Cc1ccccc1C(=O)NCCc1nnc(SCC(=O)Nc2nc(-c3ccccc3)cs2)n1C,6.47%
8,COc1ccc(/C=N/NC(=S)Nc2ccccc2)cc1COc1cccc(C)c1C,17.9%
9,COc1ccc(NC(=O)c2cccnc2Nc2ccc(OC)cc2)cc1,16.9%
10,O=C1CCC(=O)N1CN(C(=O)c1ccco1)c1ccc(Cl)c(Cl)c1,10%
11,O=C(CN1C(=O)CCC1=O)Nc1ccc2c3c(cccc13)CC2,-6.41%
12,COc1ccccc1C(=O)NNC(=O)C(=O)NC1CCCCC1,17.9%
13,CC(=O)Nc1ccc(C(=O)NCC(=O)OCc2c(F)cccc2Cl)cc1,19.7%
14,O=C(O)Cn1cc(/C=C2\C(=O)NC(=O)N(Cc3ccco3)C2=O)c2ccccc21,9.63%
15,CCc1nc(N2CCNCC2)c(C#N)c2c1CSC(C)(C)C2,11.5%
16,CO/N=C(\Cn1ncc(NC2CCCCC2)c(Br)c1=O)c1ccc(Cl)cc1,-1.74%
17,Cc1n[nH]c(=O)c2c(NC(=O)CSc3nncs3)oc(C)c12,19.7%
18,CC(C)(C#CC(O)(c1ccccc1)c1ccccc1)N1CCCCC1,11.8%
19,Cc1nn(Cc2ccccc2Cl)c2sc(C(=O)NCCCn3ccnc3)cc12,-15.1%
20,COc1ccc(NC(=O)Nc2cc(C)cc(C)c2)cn1,-0.814%

row,Compound,"hERG current change (%, negative = inhibition) at 1uM"
1,COc1cc(/C=N/NC(=O)c2cccc([N+](=O)[O-])c2)ccc1OCc1ccc(C)cc1,4.93%
2,O=S(=O)(c1cccs1)N1CCC(Cc2ccccc2)CC1,4.04%
3,CCc1nc(SCC(=O)NCc2ccc(F)cc2)c2c(=O)n(C)c(=O)n(C)c2n1,11.2%
4,CC(=O)OCC(=O)Nc1ccccc1C,12.6%
5,Cc1ccc(OCC(=O)Nc2ccc(N3CCCC3)cc2)cc1C,12.1%
6,O=C(Nc1c(F)cc(F)cc1Br)c1cc(-c2ccc(O)cc2)on1,8.3%
7,COc1ccc(C(=O)NCC(c2ccc(F)cc2)N2CCOCC2)cc1S(=O)(=O)N1CCCC1 (centres unmarked),2.4%
8,Brc1ccc2c(c1)OCCOCCOc1cc(Br)ccc1OCCOCCOCCO2,-6.77%
9,CSc1ncccc1C(=O)N1CCCC(C(=O)c2ccc3ccccc3c2)C1 (centres unmarked),3.33%
10,CCC1CCCCN1C(=O)CSc1nc2ccsc2c(=O)n1Cc1ccccc1 (centres unmarked),-8.37%
11,O=C(COc1ccccc1[N+](=O)[O-])N/N=C/c1ccc[nH]1,14.3%
12,COc1ccc(Nc2oc(COc3ccccc3F)nc2C#N)cc1,6.02%
13,Cc1ccc(CN2CC(C(=O)Nc3ccc(C)cn3)CC2=O)cc1 (centres unmarked),-4.82%
14,S=C(NCc1ccncc1)Nc1ccc(Br)cc1Cl,1.24%
15,COc1cccc(CNC(=S)Nc2cc(C)ccc2C)c1,18.9%
16,Cc1cc(C)cc(NC(=O)C(=O)NCC2CCCO2)c1 (centres unmarked),-9.95%
17,Cc1ccccc1OCC(O)Cn1nnc2ccccc21 (centres unmarked),16.4%
18,O=C(CC(=O)Nc1ccccc1F)Nc1ccccc1F,12.9%
19,CC(C)(C)c1ccc(-c2nc(C#N)c(NCc3cccnc3)o2)cc1,14.2%
20,COc1cc(C(=O)NC(C)C2CC3CCC2C3)cc(OC)c1OC (centres unmarked),11.1%

row,Compound,"hERG current change (%, negative = inhibition) at 1uM"
1,C#C[C@]1(O)CC[C@H]2[C@@H]3CCC4=Cc5oncc5C[C@]4(C)[C@H]3CC[C@@]21C,11.2%
2,COc1ccccc1C(CNC(=O)CSc1ccc2ccccc2c1)N(C)C (centres unmarked),-8.51%
3,CCN(CC)CCNC(=O)CNC(=S)N(CCCN1CCOCC1)Cc1cccs1,15.4%
4,CN1CCC(=NNc2ccc(S(=O)(=O)N3CCOCC3)cc2[N+](=O)[O-])CC1,-1.7%
5,CN1CCN(c2ccc([N+](=O)[O-])cc2C(=O)c2ccc(Cl)cc2)CC1,-24.3%
6,Brc1ccc(-c2cnco2)cc1,9.53%
7,COc1ccc(NS(=O)(=O)c2cccc(C(=O)N/N=C(\C)c3ccncc3)c2)cc1,6.33%
8,O=C(NCc1ccc2c(c1)OCO2)c1cccc2c1C(=O)N(C1CCCCC1)C2,11.3%
9,CCc1cc2c(N[C@@H](C)C(=O)O)ncnc2s1,13%
10,Cc1ccc(NC(=O)CSc2n[nH]c(-c3ccncc3)n2)cc1,-2.68%
11,COC(=O)c1ccc(N2CCN(C(C)=O)CC2)c(NC(=O)c2cccnc2)c1,6.85%
12,CCN(CC)S(=O)(=O)c1ccc(NS(=O)(=O)c2cccs2)cc1,-8.97%
13,COCC1CCCN(Cc2cn(-c3ccccc3)nc2-c2ccc3c(c2)OCO3)C1 (centres unmarked),-20.2%
14,CCOC(=O)n1c(O)c(N=NC(N)=S)c2cc(C)ccc21,11.7%
15,CCNC(=O)COc1ccc(F)cc1C(=O)c1cnn(-c2ccccc2)c1,0.95%
16,Cc1ccc(C)c(S(=O)(=O)Nc2ccc(C(=O)N3CC(C)OC(C)C3)cc2)c1 (centres unmarked),9.09%
17,CCC1CCCCN1Cc1nc2c(c(=O)n(C)c(=O)n2C)n1CC(C)C (centres unmarked),6.92%
18,CN(C)C(=O)c1c2c(nc3ccccc13)-c1ccccc1CC2,-0.246%
19,O=C1CSC(=Nc2ccc(O)cc2)N1c1ccc(O)cc1,9.51%
